# From the supplement of paper PMC12217912
# Some of the results follow. Sequences were assembled here from the parent chain. Values near 0.05 are background.
# B1: TEV protease; numbered along this chain (parent)
# chain: MGESLFKGPRDYNPISSSICHLTNESDGHTTSLYGIGFGPFIITNKHLFRRNNGTLVVQSLHGVFKVKDTTTLQQHLVDGRDMIIIRMPKDFPPFPQKLKFREPQREERICLVTTNFQTKSMSSMVSDTSCTFPSGDGIFWKHWIQTKDGQCGSPLVSTRDGFIVGIHSASNFTNTNNYFTSVPKNFMELLTNQEAQQWVSGWRLNADSVLWGGHKVFMVKPEEPFQPVKEATQL
# Variants of: B1
# Test: raw area under fraction-flipped curve 0-4 h after induction (AUC4h, not background-subtracted), DNA-recorder readout of cleavage of the substrate (dimensionless); higher = more cleavage of the substrate by the protease variant
# Settings: temperature: 34 °C; time window: 0-4 h after rhamnose induction
# 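Also: Bxb1 expression induced with 0.2% (w/v) L-rhamnose at OD600 near 0.5, cultures sampled hourly, flipped fraction per protease–substrate barcode pair counted by paired-end Illumina sequencing.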
Variant,area with substrate CNLYFQS,area with substrate GNLYFQS,area with substrate HNLYFQS,area with substrate INLYFQS,area with substrate LNLYFQS,area with substrate MNLYFQS,area with substrate NNLYFQS,area with substrate PNLYFQS,area with substrate TNLYFQS,area with substrate WNLYFQS
MGESLFKGPRDYNPISSSICHLTNESDGHTTSLYGIGFGPFIITNKHLFRRNNGTLVVQSLHGVFKVKDTTTLQQHLVDGRDMIIIRMPKDFPPFPQKLKFREPQREERICLVTTNFQTKSMSSMVSDTSCTFPSGDGIFWKHWIQTKDGQCGSPLVSTRDGFIVGIHSASNFTNTNNYFTSVPKNFMELLTNQEAQQWVSGWRLNADSVLWGGHKVFMVKPEEPFQPVKEALQL [T233L],0.0672,0.062,0.0326,0.062,0.0718,0.0681,0.05,0.0679,0.0599,0.0619
MGESLFKGPRDYNPISSSICHLTNESDGHTTSLYGIGFGPFIITNKHLFRRNNGTLVVQSLHGVFKVKDTTTLQQHLVDGRDMIIIRMPKDFPPFPQKLKFREPQREERICLVTTNFQTKSMSSMVSDTSCTFPSGDGIFWKHWIQTKDGQCGSPLVSTRDGFIVGIHSASNFTNTNNYFTSVPKNFMELLTNQEAQQWVSGWRLNADSVLWGGHKVFMVKPEEPFQPVKEATYL [Q234Y],0.0609,0.0651,0.0658,0.0617,0.0592,0.0649,0.0641,0.068,0.0209,0.0529
MGESLFKGPRDYNPISSSICHLTNESDGHTTSLYGIGFGPFIITNKHLFRRNNGTLVVQSLHGVFKVKDTTTLQQHLVDGRDMIIIRMPKDFPPFPQKLKFREPQREERICLVTTNFQTKSMSSMVSDTSCTFPSGDGIFWKHWIQTKDGQCGSPLVSTRDGFIVGIHSASNFTNTNNYFTSVPKNFMELLTNQEAQQWVSGWRLNADSVLWGGHKVFMVKPEEPFQPVKEATAL [Q234A],0.054,,0.0687,,,,,0.0654,,0.0643
MGESLFKGPRDYNPISSSICHLTNESDGHTTSLYGIGFGPFIITNKHLFRRNNGTLVVQSLHGVFKVKDTTTLQQHLVDGRDMIIIRMPKDFPPFPQKLKFREPQREERICLVTTNFQTKSMSSMVSDTSCTFPSGDGIFWKHWIQTKDGQCGSPLVSTRDGFIVGIHSASNFTNTNNYFTSVPKNFMELLTNQEAQQWVSGWRLNADSVLWGGHKVFMVKPEEPFQPVKEATQK [L235K],0.0803,0.071,0.07,,,,,0.0716,0.0355,0.0562
MGESLFKGPRDYNPISSSICHLTNESDGHTTSLYGIGFGPFIITNKHLFRRNNGTLVVQSLHGVFKVKDTTTLQQHLVDGRDMIIIRMPKDFPPFPQKLKFREPQREERICLVTTNFQTKSMSSMVSDTSCTFPSGDGIFWKHWIQTKDGQCGSPLVSTRDGFIVGIHSASNFTNTNNYFTSVPKNFMELLTNQEAQQWVSGWRLNADSVLWGGHKVFMVKPEEPFQPVQEATQL [K230Q],0.0595,,0.0571,0.0619,0.0636,0.0593,0.0388,0.0713,0.0865,0.0537
MGESLFKGPRDYNPISSSICHLTNESDGHTTSLYGIGFGPFIITNKHLFRRNNGTLVVQSLHGVFKVKDTTTLQQHLVDGRDMIIIRMPKDFPPFPQKLKFREPQREERICLVTTNFQTKSMSSMVSDTSCTFPSGDGIFWKHWIQTKDGQCGSPLVSTRDGFIVGIHSASNFTNTNNYFTSVPKNFMELLTNQEAQQWVSGWRLNADSVLWGGHKVFMVKPEEPFQPVHEATQL [K230H],0.0787,0.0583,0.0727,0.0707,0.0909,0.0679,,,0.0591,0.0657
MGESLFKGPRDYNPISSSICHLTNESDGHTTSLYGIGFGPFIITNKHLFRRNNGTLVVQSLHGVFKVKDTTTLQQHLVDGRDMIIIRMPKDFPPFPQKLKFREPQREERICLVTTNFQTKSMSSMVSDTSCTFPSGDGIFWKHWIQTKDGQCGSPLVSTRDGFIVGIHSASNFTNTNNYFTSVPKNFMELLTNQEAQQWVSGWRLNADSVLWGGHKVFMVKPEEPFQPVYEATQL [K230Y],0.0754,,,0.0678,0.0841,,0.0381,,,0.0169
MGESLFKGPRDYNPISSSICHLTNESDGHTTSLYGIGFGPFIITNKHLFRRNNGTLVVQSLHGVFKVKDTTTLQQHLVDGRDMIIIRMPKDFPPFPQKLKFREPQREERICLVTTNFQTKSMSSMVSDTSCTFPSGDGIFWKHWIQTKDGQCGSPLVSTLDGFIVGIHSASNFTNTNNYFTSVPKNFMELLTNQEAQQWVSGWRLNADSVLWGGHKVFMVKPEEPFQPVKEATQL [R160L],,0.0643,,0.0675,,,,,,0.0599
MGESLFKGPRDYNPISSSICHLTNESDGHTTSLYGIGFGPFIITNKHLFRRNNGTLVVQSLHGVFKVKDTTTLQQHLVDGRDMIIIRMPKDFPPFPQKLKFREPQREERIGLVTTNFQTKSMSSMVSDTSCTFPSGDGIFWKHWIQTKDGQCGSPLVSTRDGFIVGIHSASNFTNTNNYFTSVPKNFMELLTNQEAQQWVSGWRLNADSVLWGGHKVFMVKPEEPFQPVKEATQL [C111G],,,0.0861,,0.0644,0.0678,,,,0.0679
MGESLFKYPRDYNPISSSICHLTNESDGHTTSLYGIGFGPFIITNKHLFRRNNGTLVVQSLHGVFKVKDTTTLQQHLVDGRDMIIIRMPKDFPPFPQKLKFREPQREERICLVTTNFQTKSMSSMVSDTSCTFPSGDGIFWKHWIQTKDGQCGSPLVSTRDGFIVGIHSASNFTNTNNYFTSVPKNFMELLTNQEAQQWVSGWRLNADSVLWGGHKVFMVKPEEPFQPVKEATQL [G8Y],,,,,0.0895,,,,,
MGESLFKGPRDYNPISSSICHLTNESDGHTTSLYGIGFGPFIITNKHLFRRNNGTLVVQSLHGVFKVKDTTTLQQHLVDGRDMIIIRMPKDFPPFPQKLKFREPQREERICLVTTNFQTKSMSSMVSDTSCTFPSGDGIFWKHWIQTKDGQCGSPLVSTRDGFIVGIHSASNFTNTNNYFTSVPKNFMELLTNQEAQQWVSGWRLNADSVLWGGHKVFMVKPEEPFQPSKEATQL [V229S],0.0675,0.0591,0.0763,0.0726,0.0569,0.0688,,0.064,,0.0689
MGESLFKGPRDYNPISSSICHLTNESDGHTTSLYGIGFGPFIITNKHLFRRNNGTLVVQSLHGVFKVKDTTTLQQHLVDGRDMIIIRMPKDFPPFPQKLKFREPQREERICLVTTNFQTKSMSSMVSDTSCTFPSGDGIFWKHWIQTKDGQCGSPLVSTRDGFIVGIHSASNFTNTNNYFTSVPKNFMELLTNQEAQQWVSGWRLNADSVLWGGHKVFMVKPEEPFQPTKEATQL [V229T],0.0841,0.0546,,,0.0592,,0.0801,,,
MGESLFKGPRDYNPISSSICHLTNESDGHTTSLYGIGFGPFIITNKHLFRRNNGTLVVQSLHGVFKVKDTTTLQQHLVDGRDMIIIRMPKDFPPFPQKLKFREPQREERICLVTTNFQTKSMSSMVSDTSCTFPSGDGIFWKHWIQTKDGQCGSPLVSTRDGFIVGIHSASNFTNTNNYFTSVPKNFMELLTNQEAQQWVSGWRLNADSVLWGGHKVFMVKPEEPFQPVKFATQL [E231F],0.0656,,0.0532,,,0.0608,,,,0.0647

# Same assay, conditions: temperature: 34 °C; time window: 0-4 h after rhamnose induction
Variant,area with substrate YNLYFQS,area with substrate FNLYFQS,area with substrate KNLYFQS,area with substrate QNLYFQS,area with substrate VNLYFQS,area with substrate SNLYFQS,area with substrate RNLYFQS
MGESLFKGPRDYNPISSSICHLTNESDGHTTSLYGIGFGPFIITNKHLFRRNNGTLVVQSLHGVFKVKDTTTLQQHLVDGRDMIIIRMPKDFPPFPQKLKFREPQREERICLVTTNFQTKSMSSMVSDTSCTFPSGDGIFWKHWIQTKDGQCGSPLVSTRDGFIVGIHSASNFTNTNNYFTSVPKNFMELLTNQEAQQWVSGWRLNADSVLWGGHKVFMVKPEEPFQPVKEALQL [T233L],0.0567,,,,,,
MGESLFKGPRDYNPISSSICHLTNESDGHTTSLYGIGFGPFIITNKHLFRRNNGTLVVQSLHGVFKVKDTTTLQQHLVDGRDMIIIRMPKDFPPFPQKLKFREPQREERICLVTTNFQTKSMSSMVSDTSCTFPSGDGIFWKHWIQTKDGQCGSPLVSTRDGFIVGIHSASNFTNTNNYFTSVPKNFMELLTNQEAQQWVSGWRLNADSVLWGGHKVFMVKPEEPFQPVKEATYL [Q234Y],0.0641,0.0561,0.083,0.0594,0.0598,,
MGESLFKGPRDYNPISSSICHLTNESDGHTTSLYGIGFGPFIITNKHLFRRNNGTLVVQSLHGVFKVKDTTTLQQHLVDGRDMIIIRMPKDFPPFPQKLKFREPQREERICLVTTNFQTKSMSSMVSDTSCTFPSGDGIFWKHWIQTKDGQCGSPLVSTRDGFIVGIHSASNFTNTNNYFTSVPKNFMELLTNQEAQQWVSGWRLNADSVLWGGHKVFMVKPEEPFQPVKEATAL [Q234A],0.064,,,,,,
MGESLFKGPRDYNPISSSICHLTNESDGHTTSLYGIGFGPFIITNKHLFRRNNGTLVVQSLHGVFKVKDTTTLQQHLVDGRDMIIIRMPKDFPPFPQKLKFREPQREERICLVTTNFQTKSMSSMVSDTSCTFPSGDGIFWKHWIQTKDGQCGSPLVSTRDGFIVGIHSASNFTNTNNYFTSVPKNFMELLTNQEAQQWVSGWRLNADSVLWGGHKVFMVKPEEPFQPVKEATQK [L235K],0.0595,0.063,0.0743,0.0701,0.0763,0.0717,
MGESLFKGPRDYNPISSSICHLTNESDGHTTSLYGIGFGPFIITNKHLFRRNNGTLVVQSLHGVFKVKDTTTLQQHLVDGRDMIIIRMPKDFPPFPQKLKFREPQREERICLVTTNFQTKSMSSMVSDTSCTFPSGDGIFWKHWIQTKDGQCGSPLVSTRDGFIVGIHSASNFTNTNNYFTSVPKNFMELLTNQEAQQWVSGWRLNADSVLWGGHKVFMVKPEEPFQPVQEATQL [K230Q],,,,,,0.0662,
MGESLFKGPRDYNPISSSICHLTNESDGHTTSLYGIGFGPFIITNKHLFRRNNGTLVVQSLHGVFKVKDTTTLQQHLVDGRDMIIIRMPKDFPPFPQKLKFREPQREERICLVTTNFQTKSMSSMVSDTSCTFPSGDGIFWKHWIQTKDGQCGSPLVSTRDGFIVGIHSASNFTNTNNYFTSVPKNFMELLTNQEAQQWVSGWRLNADSVLWGGHKVFMVKPEEPFQPVHEATQL [K230H],,0.0676,0.0574,,0.0802,0.0937,
MGESLFKGPRDYNPISSSICHLTNESDGHTTSLYGIGFGPFIITNKHLFRRNNGTLVVQSLHGVFKVKDTTTLQQHLVDGRDMIIIRMPKDFPPFPQKLKFREPQREERICLVTTNFQTKSMSSMVSDTSCTFPSGDGIFWKHWIQTKDGQCGSPLVSTRDGFIVGIHSASNFTNTNNYFTSVPKNFMELLTNQEAQQWVSGWRLNADSVLWGGHKVFMVKPEEPFQPVYEATQL [K230Y],0.0695,0.0598,0.0688,,0.0743,,
MGESLFKGPRDYNPISSSICHLTNESDGHTTSLYGIGFGPFIITNKHLFRRNNGTLVVQSLHGVFKVKDTTTLQQHLVDGRDMIIIRMPKDFPPFPQKLKFREPQREERIGLVTTNFQTKSMSSMVSDTSCTFPSGDGIFWKHWIQTKDGQCGSPLVSTRDGFIVGIHSASNFTNTNNYFTSVPKNFMELLTNQEAQQWVSGWRLNADSVLWGGHKVFMVKPEEPFQPVKEATQL [C111G],,,,,0.0543,,
MGESLFKGPRDYNPISSSICHLTNESDGHTTSLYGIGFGPFIITNKHLFRRNNGTLVVQSLHGVFKVKDTTTLQQHLVDGRDMIIIRMPKDFPPFPQKLKFREPQREERICLVTTNFQTKSMSSMVSDTSCTFPSGDGIFWKHWIQTKDGQCGSPLVSTRDGFIVGIHSASNFTNTNNYFTSVPKNFMELLTNQEAQQWVSGWRLNADSVLWGGHKVFMVKPEEPFQPSKEATQL [V229S],,,0.053,,,0.0549,
MGESLFKGPRDYNPISSSICHLTNESDGHTTSLYGIGFGPFIITNKHLFRRNNGTLVVQSLHGVFKVKDTTTLQQHLVDGRDMIIIRMPKDFPPFPQKLKFREPQREERICLVTTNFQTKSMSSMVSDTSCTFPSGDGIFWKHWIQTKDGQCGSPLVSTRDGFIVGIHSASNFTNTNNYFTSVPKNFMELLTNQEAQQWVSGWRLNADSVLWGGHKVFMVKPEEPFQPTKEATQL [V229T],0.0679,,,,,,
MGESLFKGPRDYNPISSSICHLTNESDGHTTSLYGIGFGPFIITNKHLFRRNNGTLVVQSLHGVFKVKDTTTLQQHLVDGRDMIIIRMPKDFPPFPQKLKFREPQREERICLVTTNFQTKSMSSMVSDTSCTFPSGDGIFWKHWIQTKDGQCGSPLVSTRDGFIVGIHSASNFTNTNNYFTSVPKNFMELLTNQEAQQWVSGWRLNADSVLWGGHKVFMVKPEEPFQPVKFATQL [E231F],,0.0635,,,,,0.0519
